Our source for the log2 surviving fraction values is the supplement of paper PMC8813932.

Where a name gives a salt, the structure may show the parent alone. ± gives the standard deviation of the averaged measurements. The list shows a part of the results. Most values come without repeats; read them as rough.

Test systems include OVCAR4; Ov4Carbo; Ov4Cis.
What all share (assay): log2 surviving fraction relative to plate median (drug vs vehicle, or drug+dl922-947 vs dl922-947 alone); ovarian cancer lines: OVCAR4 is platinum-sensitive while Ov4Cis resists cisplatin and Ov4Carbo carboplatin; higher = more cell survival
Settings in all cases: compound concentration: 10 uM, 192 h

[1] abbreviates: dl922-947 oncolytic adenovirus co-treatment: MOI 10.
[2] abbreviates: dl922-947 oncolytic adenovirus co-treatment: none.

For the compound `Cc1cc(N)c2ccccc2[n+]1CCCCCCCCCC[n+]1c(C)cc(N)c2ccccc21` [Dequalinium chloride], the log2 surviving fraction was -3.1 ± 2.1 in the assay on OVCAR4 (setting [1]); -4.86 ± 0.26 in the assay on OVCAR4 (setting [2]); -2.22 in the assay on Ov4Carbo (setting [1]); -7.2 with Ov4Carbo (setting [2]); -1.98 in the assay on Ov4Cis (setting [1]); -5.32 in the assay with Ov4Cis (setting [2]).
In the case of `COc1ccccc1OCC(O)CN1CCN(CC(=O)Nc2c(C)cccc2C)CC1` (stereo not drawn) [Ranolazine dihydrochloride], the log2 surviving fraction is 0.471 ± 0.38 with OVCAR4 (setting [1]); 0.00409 ± 1.4 in the assay with OVCAR4 (setting [2]); -1.74 in the assay with Ov4Carbo (setting [1]); 2.32 with Ov4Carbo (setting [2]); 0.389 in the assay on Ov4Cis (setting [1]); 1.08 in the assay on Ov4Cis (setting [2]).
Take `CC1CCc2cc(F)cc3c(=O)c(C(=O)O)cn1c23` (stereo not drawn) [Flumequine]: the log2 surviving fraction in the assay with OVCAR4 (setting [1]) is -0.815 ± 1.1; with OVCAR4 (setting [2]), -0.476 ± 0.86; in the assay on Ov4Carbo (setting [1]) it was -1.06; in the assay on Ov4Carbo (setting [2]) it was 0.754; in the assay on Ov4Cis (setting [1]) it was -1.31; in the assay on Ov4Cis (setting [2]) it was -3.57.
For the compound `CN1CCc2cc3c(cc2C1O)OCO3` (stereo not drawn) [Hydrastinine HCl], the log2 surviving fraction in the assay on OVCAR4 (setting [1]) is 0.697 ± 0.51; in the assay with OVCAR4 (setting [2]), -0.23 ± 0.73; in the assay on Ov4Carbo (setting [1]), -1.86; with Ov4Carbo (setting [2]), 0.778; in the assay with Ov4Cis (setting [1]) it was 0.0503; with Ov4Cis (setting [2]) it was 1.16.
Regarding `CCCCCOC(=O)Nc1nc(=O)n([C@@H]2O[C@H](C)[C@@H](O)[C@H]2O)cc1F` [Capecitabine (Xeloda)], the log2 surviving fraction is 0.867 ± 1.1 in the assay with OVCAR4 (setting [1]); 3.69 ± 4 in the assay on OVCAR4 (setting [2]); 1.41 with Ov4Carbo (setting [1]); 1.84 in the assay on Ov4Carbo (setting [2]); 1.3 with Ov4Cis (setting [1]); 1.36 with Ov4Cis (setting [2]).
As for `O=c1[nH]cc(F)c(=O)[nH]1` [Adrucil (Fluorouracil)], the log2 surviving fraction in the assay on OVCAR4 (setting [1]) was -0.279 ± 0.28; with OVCAR4 (setting [2]) it was 0.26 ± 3.7; in the assay on Ov4Carbo (setting [1]) it was -0.903; with Ov4Carbo (setting [2]), -5.88; in the assay with Ov4Cis (setting [1]), -0.351; with Ov4Cis (setting [2]), -2.48.
Regarding `CC(=O)NS(=O)(=O)c1ccc(NC(=O)c2ccccc2C(=O)O)cc1` [Phthalylsulfacetamide], the log2 surviving fraction is -0.208 ± 0.14 with OVCAR4 (setting [1]); -0.209 ± 0.67 with OVCAR4 (setting [2]); 0.656 in the assay with Ov4Carbo (setting [1]); -0.447 in the assay with Ov4Carbo (setting [2]); 0.698 in the assay with Ov4Cis (setting [1]); -2.18 with Ov4Cis (setting [2]).
As to `CCN1CCN(C(=O)N[C@@H](C(=O)N[C@@H]2C(=O)N3C(C(=O)O)=C(CSc4nnnn4C)CS[C@H]23)c2ccc(O)cc2)C(=O)C1=O` [Cefoperazone (Cefobid)], the log2 surviving fraction in the assay with OVCAR4 (setting [1]) was 0.455 ± 1.1; in the assay on OVCAR4 (setting [2]), -0.187 ± 0.048; in the assay on Ov4Carbo (setting [1]) it was -0.228; with Ov4Carbo (setting [2]), 0.146; in the assay on Ov4Cis (setting [1]), -0.344; in the assay on Ov4Cis (setting [2]) it was -0.729.
With `C[N+](C)(C)CC(O)CC(=O)[O-]` (racemic) [DL-Carnitine hydrochloride], the log2 surviving fraction in the assay with OVCAR4 (setting [1]) was -0.372 ± 0.64; in the assay with OVCAR4 (setting [2]), -0.684 ± 0.28; in the assay with Ov4Carbo (setting [1]) it was 0.0853; with Ov4Carbo (setting [2]), 0.469; in the assay on Ov4Cis (setting [1]), 0.602; in the assay on Ov4Cis (setting [2]), -0.582.
Consider `COc1cc([C@@H]2c3cc4c(cc3[C@@H](O[C@@H]3O[C@@H]5CO[C@@H](c6cccs6)O[C@H]5[C@H](O)[C@H]3O)[C@H]3COC(=O)[C@H]23)OCO4)cc(OC)c1O` [Teniposide (Vumon)], for which the log2 surviving fraction is -5.28 ± 0.45 with OVCAR4 (setting [1]); -7.46 ± 3.5 with OVCAR4 (setting [2]); -6.28 with Ov4Carbo (setting [1]); -8.99 with Ov4Carbo (setting [2]); -7.19 in the assay on Ov4Cis (setting [1]); -11.7 in the assay on Ov4Cis (setting [2]).
For `CC(C)(C)NCC(O)c1ccc(O)c(CO)c1` (stereo not drawn) [Salbutamol sulfate (Albuterol)], the log2 surviving fraction in the assay with OVCAR4 (setting [1]) was -0.365 ± 0.46; with OVCAR4 (setting [2]), 0.0866 ± 0.2; with Ov4Carbo (setting [1]) it was -0.53; in the assay with Ov4Carbo (setting [2]) it was 0.185; with Ov4Cis (setting [1]), -0.203; with Ov4Cis (setting [2]), -0.0178.
For the compound `NS(=O)(=O)c1cc(Cl)c(Cl)c(S(N)(=O)=O)c1` [Dichlorphenamide (Diclofenamide)], the log2 surviving fraction in the assay with OVCAR4 (setting [1]) was 0.271 ± 0.16; in the assay with OVCAR4 (setting [2]) it was -0.0341 ± 0.46; in the assay with Ov4Carbo (setting [1]) it was 1.4; in the assay with Ov4Carbo (setting [2]), 0.198; in the assay with Ov4Cis (setting [1]), 0.0736; with Ov4Cis (setting [2]) it was -0.514.
Consider `CN(CCOc1ccc(CC2SC(=O)NC2=O)cc1)c1ccccn1` (stereo not drawn) [Rosiglitazone (Avandia)], for which the log2 surviving fraction is 0.495 ± 1 in the assay on OVCAR4 (setting [1]); 0.523 ± 1.4 in the assay on OVCAR4 (setting [2]); 1.18 in the assay on Ov4Carbo (setting [1]); 1.67 in the assay with Ov4Carbo (setting [2]); 0.989 in the assay with Ov4Cis (setting [1]); 1.65 with Ov4Cis (setting [2]).
On to `O=P1(N(CCCl)CCCl)NCCCO1` (stereo not drawn) [Cyclophosphamide monohydrate], for which the log2 surviving fraction in the assay with OVCAR4 (setting [1]) was 0.0588 ± 0.21; in the assay with OVCAR4 (setting [2]), -0.307 ± 1.1; in the assay on Ov4Carbo (setting [1]) it was -0.696; with Ov4Carbo (setting [2]), 0.92; in the assay with Ov4Cis (setting [1]) it was 0.536; with Ov4Cis (setting [2]), 0.762.
Turning to `c1ccc2c(CC3=NCCN3)cccc2c1` [Naphazoline hydrochloride (Naphcon)], the log2 surviving fraction was 0.02 ± 0.038 with OVCAR4 (setting [1]); 0.147 ± 0.13 with OVCAR4 (setting [2]); -0.894 in the assay with Ov4Carbo (setting [1]); -0.316 in the assay with Ov4Carbo (setting [2]); 0.137 in the assay on Ov4Cis (setting [1]); -0.31 with Ov4Cis (setting [2]).
On to `CCOc1nc2cccc(C(=O)O)c2n1Cc1ccc(-c2ccccc2-c2noc(=O)[nH]2)cc1` [Azilsartan (TAK-536)], for which the log2 surviving fraction with OVCAR4 (setting [1]) is 0.3 ± 0.095; with OVCAR4 (setting [2]), 0.854 ± 1; with Ov4Carbo (setting [1]), 2.97; in the assay on Ov4Carbo (setting [2]) it was -0.383; in the assay with Ov4Cis (setting [1]) it was 0.47; with Ov4Cis (setting [2]), -1.38.
Turning to `CC1(C)[C@@H](O[C@H]2O[C@H](C(=O)O)[C@@H](O)[C@H](O)[C@H]2O[C@@H]2O[C@H](C(=O)O)[C@@H](O)[C@H](O)[C@H]2O)CC[C@]2(C)[C@H]3C(=O)C=C4[C@@H]5C[C@@](C)(C(=O)O)CC[C@]5(C)CC[C@@]4(C)[C@]3(C)CC[C@@H]12` [Ammonium Glycyrrhizinate (AMGZ)], the log2 surviving fraction in the assay with OVCAR4 (setting [1]) is -0.53 ± 0.014; in the assay with OVCAR4 (setting [2]), -0.346 ± 0.19; in the assay on Ov4Carbo (setting [1]) it was 0.464; in the assay on Ov4Carbo (setting [2]) it was 0.707; with Ov4Cis (setting [1]), 0.554; in the assay with Ov4Cis (setting [2]) it was 0.416.
In the case of `CC(c1cc2ccccc2s1)N(O)C(N)=O` (stereo not drawn) [Zileuton], the log2 surviving fraction in the assay on OVCAR4 (setting [1]) was 0.671 ± 0.34; in the assay on OVCAR4 (setting [2]), 0.393 ± 0.19; with Ov4Carbo (setting [1]), -0.297; in the assay with Ov4Carbo (setting [2]), 1.01; in the assay on Ov4Cis (setting [1]), 0.148; with Ov4Cis (setting [2]) it was 0.997.
Turning to `CNCC[C@H](Oc1cccc2ccccc12)c1cccs1` [Duloxetine HCl (Cymbalta)], the log2 surviving fraction was -4.85 ± 2.1 in the assay with OVCAR4 (setting [1]); -2.87 ± 0.39 with OVCAR4 (setting [2]); -6.93 with Ov4Carbo (setting [1]); -5 with Ov4Carbo (setting [2]); -6.39 with Ov4Cis (setting [1]); -2.34 in the assay on Ov4Cis (setting [2]).
Take `C[C@@H]1CCN(C(=O)CC#N)C[C@@H]1N(C)c1ncnc2[nH]ccc12`: the log2 surviving fraction was 0.087 ± 0.94 in the assay on OVCAR4 (setting [1]); -0.0842 ± 0.94 in the assay on OVCAR4 (setting [2]); 1.48 in the assay on Ov4Carbo (setting [1]); -0.344 in the assay with Ov4Carbo (setting [2]); 0.309 with Ov4Cis (setting [1]); -0.141 in the assay on Ov4Cis (setting [2]).
For the compound `CNCC(=O)c1ccc(O)c(O)c1` [Adrenalone HCl], the log2 surviving fraction in the assay on OVCAR4 (setting [1]) is -0.484 ± 0.54; with OVCAR4 (setting [2]) it was -1.07 ± 0.27; in the assay on Ov4Carbo (setting [1]), -0.0342; in the assay on Ov4Carbo (setting [2]), 0.303; in the assay with Ov4Cis (setting [1]), -1.47; in the assay with Ov4Cis (setting [2]), -0.518.
In the case of `COc1cc2/c(=N/c3ccc(Br)cc3F)nc[nH]c2cc1OCC1CCN(C)CC1` [Vandetanib (Zactima)], the log2 surviving fraction is -0.337 ± 0.69 in the assay with OVCAR4 (setting [1]); -5.12 ± 3.7 in the assay with OVCAR4 (setting [2]); -1.48 in the assay with Ov4Carbo (setting [1]); -4.9 with Ov4Carbo (setting [2]); -0.167 in the assay with Ov4Cis (setting [1]); -0.411 in the assay with Ov4Cis (setting [2]).
Take `Nc1nc2[nH]cc(CCc3ccc(C(=O)N[C@@H](CCC(=O)O)C(=O)O)cc3)c2c(=O)[nH]1` [Pemetrexed]: the log2 surviving fraction was -0.808 ± 0.37 in the assay with OVCAR4 (setting [1]); -1.28 ± 4.1 in the assay with OVCAR4 (setting [2]); -1.38 in the assay on Ov4Carbo (setting [1]); -3.45 with Ov4Carbo (setting [2]); 0.944 with Ov4Cis (setting [1]); -0.634 with Ov4Cis (setting [2]).
